Some of the results follow. These are noisy estimates, calculated here from bound and input reads.

For this assay, the target named is T1, Pho4 (S. cerevisiae) (UniProt P07270).
T1 sequence: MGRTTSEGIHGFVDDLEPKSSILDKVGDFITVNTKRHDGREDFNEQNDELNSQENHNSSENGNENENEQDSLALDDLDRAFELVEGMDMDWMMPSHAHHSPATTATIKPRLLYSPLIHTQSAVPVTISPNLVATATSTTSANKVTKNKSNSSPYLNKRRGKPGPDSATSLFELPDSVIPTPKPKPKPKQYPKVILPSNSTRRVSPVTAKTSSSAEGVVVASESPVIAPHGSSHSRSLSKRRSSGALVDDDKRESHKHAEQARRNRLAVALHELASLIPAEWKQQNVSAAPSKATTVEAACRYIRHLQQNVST
The assay is described as follows: relative binding free energy (BET-seq); higher = weaker binding. The following applies: reference: library average.
In the case of GAGTTCACGTGGGACT, the “relative binding free energy” value is 0.31 kcal/mol.
The value for ACAGTCACGTGGGTGA was -0.18 kcal/mol; that for AGTTACACGTGGCAGG was -0.01 kcal/mol; that for AATAGCACGTGATGTC was 0.13 kcal/mol.
The value for ATGTGCACGTGTAAGA was 0.09 kcal/mol; that for GTGTACACGTGTGGTC was 0.03 kcal/mol; that for GTTGGCACGTGAGTGT was 0.19 kcal/mol.
The figure for GGTCTCACGTGAGGGG is 0.28 kcal/mol; for GTTGTCACGTGAATGG it is 0.19 kcal/mol.
In the case of GGGAGCACGTGGTTGC, the “relative binding free energy” value was -0.1 kcal/mol.
Turning to TTGCACACGTGGGGGT, the “relative binding free energy” value amounted to 0.01 kcal/mol.
The value for ACGTCCACGTGTGGGT was 0.07 kcal/mol; that for TTATGCACGTGAAGTG was 0.15 kcal/mol.
The figure for GCTTGCACGTGAGCGG is 0.17 kcal/mol.
The figure for TATAGCACGTGTGTTG is -0.07 kcal/mol; for TATGCCACGTGTTGGC it is 0.1 kcal/mol; for ATCGTCACGTGGGTGA it is -0.06 kcal/mol.
In the case of GTGTCCACGTGGTACG, the “relative binding free energy” value is -0.02 kcal/mol.
The figure for ACTGACACGTGGTGGT is -0.1 kcal/mol; for ATTTTCACGTGCGGGT it is 0.33 kcal/mol; for ATTTTCACGTGACGGG it is 0.36 kcal/mol.
Consider GACTTCACGTGTTGTA, for which the “relative binding free energy” value was 0.26 kcal/mol.
The value for AGGGTCACGTGGTAGC was 0 kcal/mol.
The value for GTATACACGTGCTGGG was -0.04 kcal/mol; that for TGTGTCACGTGTCTTT was 0.19 kcal/mol; that for TTACGCACGTGTGGAT was -0.06 kcal/mol.
The figure for GGGAGCACGTGCTAGT is -0.22 kcal/mol.
Regarding TGCGGCACGTGAGTTG, the “relative binding free energy” value amounted to 0.12 kcal/mol.
The value for TATGGCACGTGAATAG was 0.01 kcal/mol; that for AAGAGCACGTGGTATG was -0.06 kcal/mol; that for GTTAACACGTGTAATT was 0.14 kcal/mol.
As for TTTTGCACGTGTGTAA, the “relative binding free energy” value amounted to 0.15 kcal/mol.
The value for GGGCGCACGTGATGCT was 0.15 kcal/mol; that for GAGGGCACGTGGGTCG was -0.06 kcal/mol; that for TTTAGCACGTGGCGGA was -0.22 kcal/mol.
The figure for AGTATCACGTGTGTGC is 0.23 kcal/mol.
The value for GTTGCCACGTGTTATG was 0.01 kcal/mol; that for TAGTACACGTGTGGAT was 0.08 kcal/mol.
CGGAACACGTGGGAGG: the “relative binding free energy” value is -0.07 kcal/mol.
The value for CTTAGCACGTGATGGA was 0.06 kcal/mol.
The figure for CGGGACACGTGGGTTG is -0.15 kcal/mol; for TGGGACACGTGGGAGA it is -0.09 kcal/mol.
The figure for TGGACCACGTGTGTTT is 0.05 kcal/mol; for GTATGCACGTGTGAGA it is 0.09 kcal/mol.
AGGTACACGTGACGTA: the “relative binding free energy” value is 0.24 kcal/mol.
For the sequence TTCGTCACGTGAGGGC, the “relative binding free energy” value was determined as 0.27 kcal/mol.
Regarding TAGGTCACGTGGGTTT, the “relative binding free energy” value amounted to 0.04 kcal/mol.
The value for GGGGACACGTGTGCCG was 0 kcal/mol; that for CCATTCACGTGGGGTG was 0.13 kcal/mol.
The figure for TGCTACACGTGATGTG is 0.1 kcal/mol; for TACTGCACGTGGTTTT it is -0.16 kcal/mol.
As to CTGGGCACGTGTGGAG, the “relative binding free energy” value was -0.03 kcal/mol.
The value for CGGGGCACGTGTTCGT was 0.02 kcal/mol; that for GGGAGCACGTGGATCG was 0.02 kcal/mol.
As for CTTGACACGTGTGTGG, the “relative binding free energy” value worked out at 0.09 kcal/mol.
The figure for GTTGGCACGTGGGGCC is -0.15 kcal/mol.
For GGTGTCACGTGATCTG, the “relative binding free energy” value was 0.17 kcal/mol.
The figure for ATGCTCACGTGGGGGC is -0.07 kcal/mol; for TTTAACACGTGTGTTT it is 0.01 kcal/mol.
The value for TGACGCACGTGAGTGA was 0.16 kcal/mol; that for GTAGTCACGTGGGCTC was 0.2 kcal/mol; that for GTATGCACGTGGCGGT was 0 kcal/mol.
As to AGGCACACGTGGGTGG, the “relative binding free energy” value is -0.08 kcal/mol.
For TGACGCACGTGATGTT, the “relative binding free energy” value stood at 0 kcal/mol.
The figure for TGTCGCACGTGGGAAT is -0.14 kcal/mol; for TTAGGCACGTGTCAGT it is 0.01 kcal/mol.
The value for GAAAGCACGTGTTTGT was -0.13 kcal/mol.
Consider TGCTACACGTGTGGGA, for which the “relative binding free energy” value is 0.04 kcal/mol.
For the sequence GACTTCACGTGTGATG, the “relative binding free energy” value turned out to be 0.49 kcal/mol.
The figure for TGTGACACGTGCTGTG is -0.08 kcal/mol; for ATGTACACGTGGCTTT it is -0.02 kcal/mol; for TTGGACACGTGTCGTT it is 0.09 kcal/mol.
With ATATGCACGTGGTGAG, the “relative binding free energy” value was -0.15 kcal/mol.
Consider GGGTACACGTGGTGGC, for which the “relative binding free energy” value was determined as 0.15 kcal/mol.
For GTGATCACGTGGTGAA, the “relative binding free energy” value came to 0.07 kcal/mol.
Consider AATAGCACGTGTAAAG, for which the “relative binding free energy” value came to 0.13 kcal/mol.
The value for AGGAGCACGTGTGACT was 0.04 kcal/mol; that for GGCAGCACGTGTGTGG was 0.05 kcal/mol; that for TGGAGCACGTGTTTGA was -0.09 kcal/mol.
The figure for GGACTCACGTGTGGCG is 0.43 kcal/mol; for TTGTCCACGTGCTTTT it is -0.04 kcal/mol; for GTAAACACGTGAATTG it is 0.27 kcal/mol.
The figure for AAGGTCACGTGGGGGC is 0.03 kcal/mol; for GATAGCACGTGTATAG it is 0.02 kcal/mol; for TTACGCACGTGGTGTT it is -0.21 kcal/mol.
As for CGATGCACGTGATGGT, the “relative binding free energy” value amounted to 0.02 kcal/mol.
The figure for TGTGACACGTGGAGAA is -0.06 kcal/mol; for TGGTGCACGTGTTTTG it is 0.07 kcal/mol.
The figure for GTGGCCACGTGAAGTG is 0.24 kcal/mol.
The figure for TTTCTCACGTGTATAT is 0.13 kcal/mol; for GTGTACACGTGGATGA it is -0.01 kcal/mol.
On to GATTGCACGTGATTGT, for which the “relative binding free energy” value came to 0.25 kcal/mol.
The value for GGTGACACGTGGTACT was -0.04 kcal/mol; that for TAATGCACGTGAGTTA was 0.1 kcal/mol.
The figure for GGATGCACGTGCGGGA is 0.05 kcal/mol.
The value for AGGAGCACGTGGAGGA was -0.09 kcal/mol.
Consider TAGGTCACGTGAGGCT, for which the “relative binding free energy” value amounted to 0.34 kcal/mol.
The value for ATTGACACGTGGAGAG was -0.04 kcal/mol; that for ATCCGCACGTGTGTGT was 0 kcal/mol; that for TGAGTCACGTGATGTT was 0.22 kcal/mol.
The value for TCTGTCACGTGATGTA was 0.16 kcal/mol.
For GCGGTCACGTGAAGGT, the “relative binding free energy” value worked out at 0.3 kcal/mol.
The value for TTGGACACGTGCTGGG was 0.08 kcal/mol.
Consider GTTGGCACGTGGATAC, for which the “relative binding free energy” value was 0.05 kcal/mol.
The figure for TTTTGCACGTGAACTT is 0.26 kcal/mol.
The figure for AGTAACACGTGGTGTA is -0.11 kcal/mol; for CCGTTCACGTGGTGTG it is 0.09 kcal/mol; for TGCATCACGTGGTTAA it is 0.13 kcal/mol.
For AACGTCACGTGGTATT, the “relative binding free energy” value was 0.14 kcal/mol.
The figure for AGGGGCACGTGCTCGA is -0.14 kcal/mol; for GGAATCACGTGAAGGG it is 0.42 kcal/mol.
The value for ATGAGCACGTGCTTTT was -0.12 kcal/mol; that for TTTTGCACGTGGTTCT was -0.02 kcal/mol; that for GCTGGCACGTGTAGTA was 0.11 kcal/mol.
The figure for TGTTGCACGTGTTAAC is 0.05 kcal/mol.

The record behind these values is the BET-seq Pho4 binding data (Le et al. 2018).
